# Reference: the supplement of paper PMC8728848
# The other results are listed elsewhere or left out.
# B1: Eosinophil cationic protein (ECP) (Homo sapiens), P12724 (protein)
# chain: MVPKLFTSQICLLLLLGLMGVEGSLHARPPQFTRAQWFAIQHISLNPPRCTIAMRAINNYRWRCKNQNTFLRTTFANVVNVCGNQSIRCPHNRTLNNCHRSRFRVPLLHCDLINPGAQNISNCTYADRPGRRFYVVACDNRDPRDSPRYPVVPVHLDTTI
# Legend:
# Experiment in all cases: glycan array binding signal (z-score within array); higher = stronger binding
# Details in all cases: glycan notation: IUPAC condensed, linker removed
# [1] = target: Gal(b1-4)GlcNAc(b1-3)Gal(b1-4)Glc
# Summary of the method: (§1)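 Columns mapping to the same glycan were averaged after glycan names were converted to IUPAC-condensed notation. The data come from 3228 arrays in the Consortium for Functional Glycomics database, limited to those with an available protein sequence. Binding is reported as a within-array Z-score averaged across arrays of one protein sequence and across linkers.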
# [2] = target: Gal(b1-4)GlcNAc(b1-3)Gal(b1-4)GlcNAc
# Summary of the method: as §1
# [3] = target: Gal(b1-4)GlcNAc(b1-3)Gal(b1-4)GlcNAc(b1-3)Gal(b1-4)GlcNAc
# Summary of the method: as §1
# [4] = target: Gal(b1-4)GlcNAc(b1-3)Gal(b1-4)[Fuc(a1-3)GlcNAc(b1-6)]Gal(b1-4)Glc
# Summary of the method: as §1
# [5] = target: Gal(b1-4)GlcNAc(b1-3)Gal(b1-4)[Fuc(a1-3)]GlcNAc(b1-3)Gal(b1-4)[Fuc(a1-3)]GlcNAc
# Summary of the method: as §1
# [6] = target: Gal(b1-4)GlcNAc(b1-3)GalNAc
# Summary of the method: as §1
# [7] = target: Gal(b1-4)GlcNAc(b1-3)[Gal(b1-4)GlcNAc(b1-6)]Gal(b1-4)GlcNAc
# Summary of the method: as §1
# [8] = target: Gal(b1-4)GlcNAc(b1-3)[Gal(b1-4)GlcNAc(b1-6)]GalNAc
# Summary of the method: as §1
# [9] = target: Gal(b1-4)GlcNAc(b1-3)[GlcNAc(b1-6)]Gal(b1-4)GlcNAc
# Summary of the method: as §1
# [10] = target: Gal(b1-4)GlcNAc(b1-6)Gal(b1-4)GlcNAc
# Summary of the method: as §1
# [11] = target: Gal(b1-4)GlcNAc(b1-6)GalNAc
# Summary of the method: as §1
# [12] = target: Gal(b1-4)GlcNAc(b1-6)[Gal(b1-3)]GalNAc
# Summary of the method: as §1
# Gal(b1-6)Gal = target: Gal(b1-6)Gal
# Summary of the method: as §1
# Gal3S(b1-3)GalNAc = target: Gal3S(b1-3)GalNAc
# Summary of the method: as §1
# Gal3S(b1-3)GlcNAc = target: Gal3S(b1-3)GlcNAc
# Summary of the method: as §1
# [13] = target: Gal3S(b1-3)[Fuc(a1-4)]GlcNAc
# Summary of the method: as §1
# Gal3S(b1-4)Glc = target: Gal3S(b1-4)Glc
# Summary of the method: as §1
# Gal3S(b1-4)Glc6S = target: Gal3S(b1-4)Glc6S
# Summary of the method: as §1
# Gal3S(b1-4)GlcNAc = target: Gal3S(b1-4)GlcNAc
# Summary of the method: as §1
# Gal3S(b1-4)GlcNAc6S = target: Gal3S(b1-4)GlcNAc6S
# Summary of the method: as §1
# [14] = target: Gal3S(b1-4)[Fuc(a1-3)]Glc
# Summary of the method: as §1
# [15] = target: Gal3S(b1-4)[Fuc(a1-3)]Glc6S
# Summary of the method: as §1
# Gal3S4S(b1-4)GlcNAc = target: Gal3S4S(b1-4)GlcNAc
# Summary of the method: as §1
# Gal3S6S(b1-4)GlcNAc = target: Gal3S6S(b1-4)GlcNAc
# Summary of the method: as §1
# Gal3S6S(b1-4)GlcNAc6S = target: Gal3S6S(b1-4)GlcNAc6S
# Summary of the method: as §1
# Gal4S(b1-4)GlcNAc = target: Gal4S(b1-4)GlcNAc
# Summary of the method: as §1
# Gal4S6S(b1-4)GlcNAc = target: Gal4S6S(b1-4)GlcNAc
# Summary of the method: as §1
# Gal6S(b1-3)GlcNAc = target: Gal6S(b1-3)GlcNAc
# Summary of the method: as §1
# Gal6S(b1-3)GlcNAc6S = target: Gal6S(b1-3)GlcNAc6S
# Summary of the method: as §1
# Gal6S(b1-4)Glc = target: Gal6S(b1-4)Glc
# Summary of the method: as §1
# Gal6S(b1-4)Glc6S = target: Gal6S(b1-4)Glc6S
# Summary of the method: as §1
# Gal6S(b1-4)GlcNAc = target: Gal6S(b1-4)GlcNAc
# Summary of the method: as §1
# Gal6S(b1-4)GlcNAc6S = target: Gal6S(b1-4)GlcNAc6S
# Summary of the method: as §1
# GalNAc(a1-3)Gal = target: GalNAc(a1-3)Gal
# Summary of the method: as §1
# GalNAc(a1-3)GalNAc = target: GalNAc(a1-3)GalNAc
# Summary of the method: as §1
# [16] = target: GalNAc(a1-3)GalNAc(a1-3)Gal(a1-4)Gal(b1-4)GlcNAc
# Summary of the method: as §1
# [17] = target: GalNAc(a1-3)GalNAc(b1-3)Gal(a1-4)Gal(b1-4)Glc
# Summary of the method: as §1
# [18] = target: GalNAc(a1-3)GalNAc(b1-3)Gal(a1-4)Gal(b1-4)GlcNAc
# Summary of the method: as §1
# GalNAc(b1-3)Gal = target: GalNAc(b1-3)Gal
# Summary of the method: as §1
# [19] = target: GalNAc(b1-3)Gal(a1-4)Gal(b1-4)GlcNAc
# Summary of the method: as §1
# [20] = target: GalNAc(b1-3)Gal(a1-4)Gal(b1-4)GlcNAc(b1-3)Gal(b1-4)Glc
# Summary of the method: as §1
# [21] = target: GalNAc(b1-3)Gal(a1-6)Gal(b1-4)Glc
# Summary of the method: as §1
# GalNAc(b1-3)GalNAc = target: GalNAc(b1-3)GalNAc
# Summary of the method: as §1
# GalNAc(b1-4)Gal(b1-4)Glc = target: GalNAc(b1-4)Gal(b1-4)Glc
# Summary of the method: as §1
# GalNAc(b1-4)GlcNAc = target: GalNAc(b1-4)GlcNAc
# Summary of the method: as §1
binder,measurement,setting,value
B1,glycan array binding signal (z-score),[1],-0.015
same,glycan array binding signal (z-score),[2],-0.089
same,glycan array binding signal (z-score),[3],-0.376
same,glycan array binding signal (z-score),[4],-0.208
same,glycan array binding signal (z-score),[5],-0.284
same,glycan array binding signal (z-score),[6],-0.361
same,glycan array binding signal (z-score),[7],-0.088
same,glycan array binding signal (z-score),[8],-0.091
same,glycan array binding signal (z-score),[9],-0.113
same,glycan array binding signal (z-score),[10],-0.016
same,glycan array binding signal (z-score),[11],-0.015
same,glycan array binding signal (z-score),[12],-0.081
same,glycan array binding signal (z-score),Gal(b1-6)Gal,-0.343
same,glycan array binding signal (z-score),Gal3S(b1-3)GalNAc,0.215
same,glycan array binding signal (z-score),Gal3S(b1-3)GlcNAc,-0.197
same,glycan array binding signal (z-score),[13],-0.565
same,glycan array binding signal (z-score),Gal3S(b1-4)Glc,-0.164
same,glycan array binding signal (z-score),Gal3S(b1-4)Glc6S,0.915
same,glycan array binding signal (z-score),Gal3S(b1-4)GlcNAc,0.818
same,glycan array binding signal (z-score),Gal3S(b1-4)GlcNAc6S,0.063
same,glycan array binding signal (z-score),[14],2.4
same,glycan array binding signal (z-score),[15],1.23
same,glycan array binding signal (z-score),Gal3S4S(b1-4)GlcNAc,-0.557
same,glycan array binding signal (z-score),Gal3S6S(b1-4)GlcNAc,2.7
same,glycan array binding signal (z-score),Gal3S6S(b1-4)GlcNAc6S,1.89
same,glycan array binding signal (z-score),Gal4S(b1-4)GlcNAc,-0.476
same,glycan array binding signal (z-score),Gal4S6S(b1-4)GlcNAc,0.637
same,glycan array binding signal (z-score),Gal6S(b1-3)GlcNAc,-0.588
same,glycan array binding signal (z-score),Gal6S(b1-3)GlcNAc6S,-0.237
same,glycan array binding signal (z-score),Gal6S(b1-4)Glc,0.193
same,glycan array binding signal (z-score),Gal6S(b1-4)Glc6S,-0.014
same,glycan array binding signal (z-score),Gal6S(b1-4)GlcNAc,-0.171
same,glycan array binding signal (z-score),Gal6S(b1-4)GlcNAc6S,1.85
same,glycan array binding signal (z-score),GalNAc(a1-3)Gal,0.02
same,glycan array binding signal (z-score),GalNAc(a1-3)GalNAc,-0.318
same,glycan array binding signal (z-score),[16],-0.338
same,glycan array binding signal (z-score),[17],-0.258
same,glycan array binding signal (z-score),[18],-0.257
same,glycan array binding signal (z-score),GalNAc(b1-3)Gal,-0.382
same,glycan array binding signal (z-score),[19],-0.061
same,glycan array binding signal (z-score),[20],-0.272
same,glycan array binding signal (z-score),[21],-0.24
same,glycan array binding signal (z-score),GalNAc(b1-3)GalNAc,0.192
same,glycan array binding signal (z-score),GalNAc(b1-4)Gal(b1-4)Glc,-0.123
same,glycan array binding signal (z-score),GalNAc(b1-4)GlcNAc,-0.088
